# Reference: the supplement of paper PMC8728848
# This is one part of the list.
# How the values were obtained:
# Test in all cases: glycan array binding signal (z-score within array); higher = stronger binding
# Conditions in all cases: glycan notation: IUPAC condensed, linker removed
# [1] = target: Fuc(a1-2)Gal(b1-4)GlcNAc(b1-3)Gal(b1-4)GlcNAc(b1-3)Gal(b1-4)GlcNAc
# Outline: (§1)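 Columns mapping to the same glycan were averaged after glycan names were converted to IUPAC-condensed notation. The data come from 3228 arrays in the Consortium for Functional Glycomics database, limited to those with an available protein sequence. Binding is reported as a within-array Z-score averaged across arrays of one protein sequence and across linkers.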
# [2] = target: Fuc(a1-2)Gal(b1-4)GlcNAc(b1-3)GalNAc
# Outline: as §1
# [3] = target: Fuc(a1-2)Gal(b1-4)GlcNAc(b1-3)[Fuc(a1-2)Gal(b1-4)GlcNAc(b1-6)]GalNAc
# Outline: as §1
# [4] = target: Fuc(a1-2)Gal(b1-4)GlcNAc(b1-3)[Fuc(a1-3)[Gal(b1-4)]GlcNAc(b1-6)]Gal(b1-4)Glc
# Outline: as §1
# [5] = target: Fuc(a1-2)Gal(b1-4)GlcNAc(b1-6)GalNAc
# Outline: as §1
# [6] = target: Fuc(a1-2)Gal(b1-4)GlcNAc6S
# Outline: as §1
# [7] = target: Fuc(a1-2)Gal(b1-4)[Fuc(a1-3)]GlcNAc
# Outline: as §1
# [8] = target: Fuc(a1-2)Gal(b1-4)[Fuc(a1-3)]GlcNAc(b1-2)Man(a1-3)[Fuc(a1-2)Gal(b1-4)[Fuc(a1-3)]GlcNAc(b1-2)Man(a1-6)]Man(b1-4)GlcNAc(b1-4)[Fuc(a1-6)]GlcNAc
# Outline: as §1
# [9] = target: Fuc(a1-2)Gal(b1-4)[Fuc(a1-3)]GlcNAc(b1-2)[Fuc(a1-2)Gal(b1-4)[Fuc(a1-3)]GlcNAc(b1-4)]Man(a1-3)[Fuc(a1-2)Gal(b1-4)[Fuc(a1-3)]GlcNAc(b1-2)Man(a1-6)]Man(b1-4)GlcNAc(b1-4)GlcNAc
# Outline: as §1
# [10] = target: Fuc(a1-2)Gal(b1-4)[Fuc(a1-3)]GlcNAc(b1-3)Gal(b1-4)[Fuc(a1-3)]GlcNAc
# Outline: as §1
# [11] = target: Fuc(a1-2)Gal(b1-4)[Fuc(a1-3)]GlcNAc(b1-3)Gal(b1-4)[Fuc(a1-3)]GlcNAc(b1-3)Gal(b1-4)[Fuc(a1-3)]GlcNAc
# Outline: as §1
# [12] = target: Fuc(a1-2)Gal(b1-4)[Fuc(a1-3)]GlcNAc(b1-3)GalNAc
# Outline: as §1
# [13] = target: Fuc(a1-2)Gal(b1-4)[Fuc(a1-3)]GlcNAc(b1-3)[Neu5Ac(a2-6)Gal(b1-4)GlcNAc(b1-6)]Gal(b1-4)Glc
# Outline: as §1
# [14] = target: Fuc(a1-2)Gal3S(b1-4)GlcNAc
# Outline: as §1
# [15] = target: Fuc(a1-2)Gal6S(b1-3)GlcNAc
# Outline: as §1
# [16] = target: Fuc(a1-2)Gal6S(b1-3)GlcNAc6S
# Outline: as §1
# Fuc(a1-2)Gal6S(b1-4)Glc = target: Fuc(a1-2)Gal6S(b1-4)Glc
# Outline: as §1
# [17] = target: Fuc(a1-2)Gal6S(b1-4)Glc6S
# Outline: as §1
# Fuc(a1-2)[Gal(a1-3)]Gal = target: Fuc(a1-2)[Gal(a1-3)]Gal
# Outline: as §1
# [18] = target: Fuc(a1-2)[Gal(a1-3)]Gal(b1-3)GalNAc
# Outline: as §1
# [19] = target: Fuc(a1-2)[Gal(a1-3)]Gal(b1-3)GalNAc(b1-3)Gal(a1-4)Gal(b1-4)Glc
# Outline: as §1
# [20] = target: Fuc(a1-2)[Gal(a1-3)]Gal(b1-3)GlcNAc
# Outline: as §1
# [21] = target: Fuc(a1-2)[Gal(a1-3)]Gal(b1-3)GlcNAc(b1-2)Man(a1-3)[Fuc(a1-2)[Gal(a1-3)]Gal(b1-3)GlcNAc(b1-2)Man(a1-6)]Man(b1-4)GlcNAc(b1-4)GlcNAc
# Outline: as §1
# [22] = target: Fuc(a1-2)[Gal(a1-3)]Gal(b1-3)GlcNAc(b1-2)Man(a1-3)[Fuc(a1-2)[Gal(a1-3)]Gal(b1-3)GlcNAc(b1-2)Man(a1-6)]Man(b1-4)GlcNAc(b1-4)[Fuc(a1-6)]GlcNAc
# Outline: as §1
# [23] = target: Fuc(a1-2)[Gal(a1-3)]Gal(b1-3)GlcNAc(b1-3)GalNAc
# Outline: as §1
# [24] = target: Fuc(a1-2)[Gal(a1-3)]Gal(b1-3)GlcNAc(b1-6)GalNAc
# Outline: as §1
# [25] = target: Fuc(a1-2)[Gal(a1-3)]Gal(b1-4)Glc
# Outline: as §1
# [26] = target: Fuc(a1-2)[Gal(a1-3)]Gal(b1-4)GlcNAc
# Outline: as §1
# [27] = target: Fuc(a1-2)[Gal(a1-3)]Gal(b1-4)GlcNAc(b1-2)Man
# Outline: as §1
# [28] = target: Fuc(a1-2)[Gal(a1-3)]Gal(b1-4)GlcNAc(b1-2)Man(a1-3)[Fuc(a1-2)[Gal(a1-3)]Gal(b1-4)GlcNAc(b1-2)Man(a1-6)]Man(b1-4)GlcNAc(b1-4)GlcNAc
# Outline: as §1
# [29] = target: Fuc(a1-2)[Gal(a1-3)]Gal(b1-4)GlcNAc(b1-2)Man(a1-3)[Fuc(a1-2)[Gal(a1-3)]Gal(b1-4)GlcNAc(b1-2)Man(a1-6)]Man(b1-4)GlcNAc(b1-4)[Fuc(a1-6)]GlcNAc
# Outline: as §1
# [30] = target: Fuc(a1-2)[Gal(a1-3)]Gal(b1-4)GlcNAc(b1-3)GalNAc
# Outline: as §1
# [31] = target: Fuc(a1-2)[Gal(a1-3)]Gal(b1-4)GlcNAc(b1-3)[Fuc(a1-2)[Gal(a1-3)]Gal(b1-4)GlcNAc(b1-6)]GalNAc
# Outline: as §1
# [32] = target: Fuc(a1-2)[Gal(a1-3)]Gal(b1-4)GlcNAc(b1-6)GalNAc
# Outline: as §1
# [33] = target: Fuc(a1-2)[Gal(a1-3)]Gal(b1-4)[Fuc(a1-3)]Glc
# Outline: as §1
# [34] = target: Fuc(a1-2)[Gal(a1-3)]Gal(b1-4)[Fuc(a1-3)]GlcNAc
# Outline: as §1
# [35] = target: Fuc(a1-2)[Gal(a1-3)]Gal(b1-4)[Fuc(a1-3)]GlcNAc(b1-3)GalNAc
# Outline: as §1
# [36] = target: Fuc(a1-2)[Gal(a1-4)]Gal(b1-4)GlcNAc
# Outline: as §1
# [37] = target: Fuc(a1-2)[GalNAc(a1-3)]Gal
# Outline: as §1
# [38] = target: Fuc(a1-2)[GalNAc(a1-3)]Gal(b1-3)GalNAc(a1-3)[Fuc(a1-2)]Gal(b1-4)GlcNAc
# Outline: as §1
# [39] = target: Fuc(a1-2)[GalNAc(a1-3)]Gal(b1-3)GalNAc(b1-3)Gal(a1-4)Gal(b1-4)Glc
# Outline: as §1
# [40] = target: Fuc(a1-2)[GalNAc(a1-3)]Gal(b1-3)GlcNAc
# Outline: as §1
# [41] = target: Fuc(a1-2)[GalNAc(a1-3)]Gal(b1-3)GlcNAc(b1-2)Man(a1-3)[Fuc(a1-2)[GalNAc(a1-3)]Gal(b1-3)GlcNAc(b1-2)Man(a1-6)]Man(b1-4)GlcNAc(b1-4)GlcNAc
# Outline: as §1
# [42] = target: Fuc(a1-2)[GalNAc(a1-3)]Gal(b1-3)GlcNAc(b1-2)Man(a1-3)[Fuc(a1-2)[GalNAc(a1-3)]Gal(b1-3)GlcNAc(b1-2)Man(a1-6)]Man(b1-4)GlcNAc(b1-4)[Fuc(a1-6)]GlcNAc
# Outline: as §1
# [43] = target: Fuc(a1-2)[GalNAc(a1-3)]Gal(b1-3)GlcNAc(b1-3)GalNAc
# Outline: as §1
binder,measurement,setting,value
PX14343H-pdi-506-26-506 (Parabacteroides distasonis) (protein) QPTGTMTTDSKLTSKESALALTNSAYLKNTVFNKMTPGWGCNTILLLEYMTGKATSENSQSNYKDFQDLLVSDRSLYIEDWWQDCYAGIANCNLALQKLGEFENLDASLVNGYMAEVKFMRALYYFYLVRIFGDVPKITTVQSELGELQVSRAPVKEIYDEIIIPDLLEAEQSDLAFSDHTGRVSMGAVKALLADVYLTYAGYPLQGGKSYYAESAKRSLEVIKSNEYTLFTDYESLRLPSQNNKGEFIYQVQFSLNKRHNESVRIFLPSRSGISAYDLEYGSLIPTKEFVESFEKGDKRTEEKQYFFTNYKGHPSKFSPGAAELEFMDLNGYYIYKFFDQVAVDNTAKSDLNWSVYRYTDVLLMYAEAQVNADGTPNQQSIDIVNQIRGRAGLAPFKQTNASAFLEEVWDQRYFDLCYENKMWFDMLRTRKIRDDKSGEYVDFIGYKTNWGKVYTETQLLFPIPLSERQANPNLTQNQGY,glycan array binding signal (z-score),[1],-0.215
same,glycan array binding signal (z-score),[2],-0.373
same,glycan array binding signal (z-score),[3],-0.493
same,glycan array binding signal (z-score),[4],-0.332
same,glycan array binding signal (z-score),[5],-0.164
same,glycan array binding signal (z-score),[6],-0.195
same,glycan array binding signal (z-score),[7],-0.418
same,glycan array binding signal (z-score),[8],0.061
same,glycan array binding signal (z-score),[9],-0.338
same,glycan array binding signal (z-score),[10],-0.424
same,glycan array binding signal (z-score),[11],0.059
same,glycan array binding signal (z-score),[12],1.89
same,glycan array binding signal (z-score),[13],-0.392
same,glycan array binding signal (z-score),[14],-0.286
same,glycan array binding signal (z-score),[15],-0.353
same,glycan array binding signal (z-score),[16],-0.221
same,glycan array binding signal (z-score),Fuc(a1-2)Gal6S(b1-4)Glc,-0.402
same,glycan array binding signal (z-score),[17],-0.097
same,glycan array binding signal (z-score),Fuc(a1-2)[Gal(a1-3)]Gal,-0.437
same,glycan array binding signal (z-score),[18],-0.325
same,glycan array binding signal (z-score),[19],-0.484
same,glycan array binding signal (z-score),[20],-0.403
same,glycan array binding signal (z-score),[21],-0.252
same,glycan array binding signal (z-score),[22],-0.385
same,glycan array binding signal (z-score),[23],-0.35
same,glycan array binding signal (z-score),[24],-0.255
same,glycan array binding signal (z-score),[25],-0.064
same,glycan array binding signal (z-score),[26],-0.367
same,glycan array binding signal (z-score),[27],-0.394
same,glycan array binding signal (z-score),[28],1.1
same,glycan array binding signal (z-score),[29],0.417
same,glycan array binding signal (z-score),[30],0.013
same,glycan array binding signal (z-score),[31],-0.177
same,glycan array binding signal (z-score),[32],-0.381
same,glycan array binding signal (z-score),[33],-0.009
same,glycan array binding signal (z-score),[34],0.01
same,glycan array binding signal (z-score),[35],1
same,glycan array binding signal (z-score),[36],-0.086
same,glycan array binding signal (z-score),[37],-0.165
same,glycan array binding signal (z-score),[38],0.211
same,glycan array binding signal (z-score),[39],-0.327
same,glycan array binding signal (z-score),[40],-0.248
same,glycan array binding signal (z-score),[41],-0.219
same,glycan array binding signal (z-score),[42],-0.391
same,glycan array binding signal (z-score),[43],-0.257
